# Out of some 44,000 compounds screened, about 340 (0.77%) were called active. Not shown: some 5% with an inconclusive outcome. The call rests on the fitted dose curve; in most records, active means well fitted inhibition curve with a large enough effect; inconclusive means small, poorly fitted or top-dose-only effect; inactive means flat fitted curve, though single readings scatter. The list shows a part of the results.
# Assay: Acumen qHTS Assay for Inhibitors of the mTORC1 Signaling Pathway in MEF (Tsc2-/-, p53-/-) Cells: Sytravon;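 further: plate controls were DMSO for no effect and rapamycin for full effect; nearly all actives have a fitted effect of over 50% in size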
# Conditions: phospho-rpS6 immunofluorescence/PI, 24 h; series mostly up to 38.3 µM; activity change, negative = inhibition: at the top concentration
# In short: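 Compounds act on Tsc2-/-, p53-/- fibroblasts carrying an empty vector for 24 h before fixation and dual staining for phospho-S6 and DNA (propidium iodide). Values are percentages of cells above a rapamycin-defined pS6/PI threshold.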
row,Structure (SMILES),"activity change, negative = inhibition"
1,COc1cccc(N2CCN(C(=O)c3cc4c(=O)n(Cc5ccco5)ccc4nc3C)CC2)c1,inactive: -7.39%
2,O=C(NCc1ccccc1Cl)c1ccc(NC(=O)N2CCSc3ncccc32)cc1,inactive: -3.05%
3,CCC1=C(c2ccc(C)cc2)S(=O)(=O)N=C1N1CCC(C(=O)NCc2ccccc2Cl)CC1,inactive: 1.17%
4,CCOC(=O)c1cc(S(=O)(=O)N2CCN(c3ccc(F)cc3)CC2)[nH]n1,inactive: -2.62%
5,CCCN(CCC)CCNC(=O)C1CCCN(S(=O)(=O)c2cccc3nsnc23)C1 (stereo unspecified),inactive: -0.457%
6,CCCCCOC(=O)c1ccc(OC(=O)c2sc3ncn(Cc4cccc(F)c4)c(=O)c3c2C)cc1,inactive: 0.681%
7,CCOc1cc2[nH]c(=O)n(CCCC(=O)N3CCN(c4cccc(Cl)c4)CC3)c(=O)c2cc1OCC,inactive: 0.376%
8,Cc1nc(SCc2ccc(Cl)cc2)c(C#N)c(C)c1Cl,inactive: 2.38%
9,COc1ccc(OC)c(CNc2sc3c(c2C(=O)Nc2cc(OC)ccc2OC)CCCC3)c1,inactive: -0.118%
10,COc1ccc(OC)c(NC(=O)N2CCC(CN3CCCCC3)CC2)c1,inactive: 2.95%
11,CC(C)Cn1cc(C(=O)N2CCN(c3cccc(Cl)c3)CC2)c2c3ccccc3n(C)c2c1=O,inactive: 5.97%
12,CCOC(=O)c1cnc2ccc(OCC)cc2c1Nc1cc(Cl)c(OC)cc1OC,inactive: -19.1%
13,CC(=O)N1CCCc2cc(S(=O)(=O)N3CCCC(C(=O)Nc4cccc(Cl)c4C)C3)ccc21 (stereo unspecified),inactive: -0.644%
14,Cc1ccc(C)c(OC(=O)CSc2nnc(-c3ccc4c(c3)OCO4)o2)c1,inactive: 3.55%
15,COC(=O)c1ccc(Cn2c(SCC(=O)N(C)c3ccccc3)nc3ccccc32)cc1,inactive: 0%
16,CCOc1cc(C(=O)Nc2ccc(S(=O)(=O)Nc3cc(OC)nc(OC)n3)cc2)cc(OCC)c1OCC,inactive: 0.339%
17,O=C(CCCn1c(=O)c2ccccc2n(Cc2cccc(F)c2)c1=O)NCc1ccccc1Cl,inactive: -16.5%
18,O=C(Nc1ccc(S(=O)(=O)N(Cc2ccccc2)c2ccccc2)cc1)c1ccc(F)cc1,inactive: -6.73%
19,O=C(CCc1ccccc1)N1CCc2c([nH]c3ccccc23)C1c1ccc(F)cc1 (stereo unspecified),inactive: 0.0362%
20,CCCCNC(=O)c1sc2ncccc2c1-n1cccc1,inactive: -0.55%
21,Cc1cc2oc(C(=O)Nc3c(C)n(C)n(-c4ccccc4)c3=O)cc(=O)c2cc1C,inactive: 0.167%

row,Structure (SMILES),"activity change, negative = inhibition"
1,COc1ccc(-c2cc(C(=O)Nc3c(C)n(C)n(-c4ccccc4)c3=O)no2)cc1,inactive: 1.77%
2,CN1C(=O)c2ccccc2Sc2ccc(NC(=O)c3ccc(C#N)cc3)cc21,inactive: -6%
3,COC(=O)C(CCSC)NC(=O)c1cc2c(n(-c3ccccc3)c1=O)CC(C)(C)CC2=O (stereo unspecified),inactive: -0.0536%
4,CCOC(=O)Cn1c(=O)n(-c2ccc(Cl)cc2)c2nc(-c3ccc(Cl)cc3)nc(C(N)=O)c21,inactive: 0.251%
5,Cc1nn(C(C)(C)C)c(OC(=O)c2c(F)cccc2F)c1Sc1ccccc1,inactive: -3.53%
6,COc1cc(CNc2ccc3[nH]c(=O)[nH]c3c2)cc(Cl)c1OCc1ccc(F)cc1,inactive: 0.475%
7,COc1ccc(NC(=O)CN(c2ccc(C)cc2)S(=O)(=O)c2cccs2)cc1,inactive: 1.1%
8,Cc1cccc(NS(=O)(=O)c2ccc3c(c2)CCCN3C(=O)C2CCC2)c1C,inactive: -17.7%
9,Cc1ccc2c(=O)cc(C(=O)Nc3nc4ccc(Cl)cc4s3)oc2c1,inactive: -3.33%
10,O=C(Nc1ccc(C(=O)OCc2cc(=O)n3c4c(sc3n2)CCCC4)cc1)c1cccc(F)c1,inactive: 0%
11,Cc1cccc(C(=O)Nc2ccccc2OCc2cc(=O)n3c(C)csc3n2)c1,inactive: 6.3%
12,COc1ccc(CCNc2nc3c(c(=O)n(C)c(=O)n3C)n2Cc2ccccc2Cl)cc1OC,inactive: -7.92%
13,Cc1csc2nc(-c3cccc(NC(=O)c4c(F)cccc4F)c3)cn12,inactive: 2.68%
14,O=C(Cn1cc(S(=O)(=O)Cc2ccccc2F)c2ccccc21)NCc1ccccc1,inactive: 2.25%
15,CCOc1ccc(Nc2c3c(nc4nncn24)CCC3)cc1,inactive: -13.8%
16,O=C(NCCc1ccccc1)c1cc(-c2ccc(Cl)c(Cl)c2)on1,inactive: -21.5%
17,Cc1c(CC(=O)NCc2ccccc2Cl)c(=O)oc2cc(O)ccc12,inactive: 1.64%
18,COc1cc(OC)cc(N2C(=O)CSC23C(=O)Nc2ccccc23)c1 (stereo unspecified),inactive: -1.12%
19,COc1ccc(C(=O)OCc2cc(=O)n3nc(C4CC4)sc3n2)cc1OC,inactive: -9.14%
20,CCCNC(=O)CSc1cn(CC(=O)N2CCCCCC2)c2ccccc12,inactive: -5.8%
21,O=C(CSc1nc2sc3c(c2c(=O)[nH]1)CCCC3)Nc1ccccc1F,inactive: 1.02%

row,Structure (SMILES),"activity change, negative = inhibition"
1,CCOc1ccc(-c2nnc(SCC(=O)Nc3cccc(Cl)c3C)o2)cc1,inactive: -0.131%
2,CC(C)Oc1ccc(CNS(=O)(=O)c2ccc(-c3cc(C(F)(F)F)on3)s2)cc1,inactive: -2.52%
3,Cc1ccc(NC(=O)CCn2cnc3onc(-c4ccc(F)cc4)c3c2=O)c(Br)c1,inactive: -6.19%
4,Cc1ccc2nc(CN3CCN(S(=O)(=O)c4ccc(F)cc4)CC3)oc2c1,inactive: 0%
5,Cc1ccc2oc(C(=O)Nc3ccc(S(=O)(=O)Nc4nc(C)cc(C)n4)cc3)cc(=O)c2c1,inactive: 4.51%
6,Cc1cc2c(cc1S(=O)(=O)Nc1cccc(Cl)c1C)OCCN2C,inactive: -10%
7,COc1ccc(-c2nc3ccccc3o2)cc1NC(=O)c1ccc(-c2cccc(Cl)c2C)o1,inactive: -3.66%
8,Cc1c(-c2nc(-c3ccc4c(c3)OCO4)no2)nnn1-c1cccc(C(F)(F)F)c1,inactive: 7.3%
9,Cc1ccc(Cl)cc1N1CCN(C(=O)COCc2cc(-c3ccc4c(c3)OCO4)on2)CC1,inactive: 0.165%
10,Cc1ccc(CNC(=O)C2CCCN(Cc3nc(-c4cccc(C)c4)oc3C)C2)cc1 (stereo unspecified),inactive: -11.6%
11,COc1cccc(NC(=O)C2CCN(c3nnc(-n4c(C)ccc4C)s3)CC2)c1,inactive: -5.36%
12,Cc1ccc(-c2nc3c(c(SCC(=O)Nc4cccc(C(=O)O)c4)n2)Cc2cccc(C)c2O3)cc1,inactive: 0.246%
13,CCN(CC)CCNC(=O)c1ccc2c(=O)n3nc(Nc4ccccc4)sc3nc2c1,inactive: -4.99%
14,CC1=C(C(=O)Nc2cccc(C(F)(F)F)c2)C2(CCN(C(C)C)CC2)OC1=O,inactive: -2.47%
15,Cc1cc(C)c(NC(=O)Cc2ccc(-n3c(C)nc4cccnc43)cc2)c(C)c1,inactive: -7.38%
16,COc1ccc(CNC(=O)CS(=O)(=O)c2cccc3nsnc23)cc1,inactive: 0.29%
17,Cc1ccc(OC(=O)CSc2nnc(-c3cccs3)o2)c(C)c1,inactive: -1.94%
18,COc1ccc(Cl)cc1C(=O)NCc1nc(-c2cccc(C)c2)no1,inactive: 4.63%
19,O=C(c1ccc([N+](=O)[O-])cc1)N1c2ncnn2C2(CCCCC2)[C@@H]2CCCC[C@@H]21,inactive: 0%

# Reference: PubChem BioAssay AID493208 (National Center for Advancing Translational Sciences (NCATS), 2011)
